From the supplement of paper PMC3334620
Whole data set: some 33,000 sequences, median “E-score (-0.5 to 0.5)” near -0.016, cut for the highest 2% near 0.31. Some of the results follow.

biological target: Cst6 (UniProt P40535); test: PBM E-score (8-mer binding enrichment) (E-score (-0.5 to 0.5)); higher = stronger / more preferred TF binding; most listed sequences are background and not binding sites; details: protein concentration: 200 nM; construct: GST-DNA-binding domain
Procedure: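 Universal 'all 10-mer' protein binding microarrays (Agilent AMADID 015681) probed with GST-tagged S. cerevisiae TFs (full-length or DBD) made by in vitro transcription/translation (PURExpress), about 100-200 nM. Bound TF was detected with fluorescent anti-GST. Each ungapped 8-mer (which stands for itself and its reverse complement) is scored by the PBM enrichment score (E-score), a modified Wilcoxon-Mann-Whitney statistic from -0.5 to +0.5, computed with the Universal PBM Analysis Suite. Scale: above 0.35 generally sequence-specific binding.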

Row | Sequence | PBM E-score
1 | CGCTCGAA | -0.135
2 | GACAAGTA | -0.105
3 | ACAAACCG | 0.00436
4 | AAACCACA | 0.161
5 | AGAGCTTC | -0.26
6 | AGGTCCTG | -0.31
7 | ACCACGAA | -0.0509
8 | ACGTGATG | 0.291
9 | AAACAGCG | 0.091
10 | GTGGACGA | 0.0302
11 | CGTACCAA | 0.0391
12 | CTCTGTGA | 0.0453
13 | AGGTGAGA | 0.0149
14 | CTAGTACA | 0.12
15 | GGCTATTA | 0.236
16 | AGCTTTCC | -0.185
17 | AGAGCCGA | 0.102
18 | ATCCGAAC | -0.0874
19 | CACGGAGG | -0.133
20 | CATACGGG | -0.102
21 | CAAGTATA | -0.069
22 | AGGGAAGA | -0.255

Row | Sequence | PBM E-score
23 | AGCCGTCG | -0.0206
24 | AAATACTG | 0.041
25 | ACTGCGCG | -0.00892
26 | GACTATTA | 0.108
27 | TTTAAAAA | 0.0985
28 | CATGTAGG | 0.0522
29 | ATGGATAA | 0.13
30 | AGGGAATC | -0.106
31 | ATAACGAT | 0.0122
32 | ATGGCAGC | -0.106
33 | AGGAAAAC | -0.0557
34 | CTCACTGC | -0.0116
35 | ACATGACT | -0.0377
36 | CGCAGTCA | -0.114
37 | ACCTGTGG | -0.192
38 | CTATTGCA | 0.0171
39 | ACGCATAC | 0.16
40 | ACCGTCGC | -0.0702
41 | CGCTGGAC | -0.297
42 | AGTTTCAC | 0.0804
43 | CAGTTGGG | -0.0311
44 | ATAATCGA | 0.0249

Row | Sequence | PBM E-score
45 | AGAGTGGG | -0.134
46 | ACTTCCGC | -0.187
47 | CAGTTCCC | -0.0232
48 | ACGGCTGC | -0.0402
49 | CTCAGGAG | -0.106
50 | CAGACTAG | -0.199
51 | CCATCGAA | 0.0752
52 | CACCAGTG | -0.0525
53 | AACCTAGC | -0.22
54 | CCGTTGGA | -0.208
55 | AGAGAGAG | -0.155
56 | ATAACCCA | -0.00817
57 | GATTGTCA | 0.17
58 | TCCGACGA | -0.0151
59 | CAATTCCC | 0.0483
60 | CATTGCAC | 0.0758
61 | TGCGTCAA | 0.318
62 | ACATTAAT | 0.119
63 | CTTCAATC | 0.0446
64 | CGGAGGGC | -0.314
65 | AAAATGAC | 0.327
66 | ACCCTCGA | -0.212

Row | Sequence | PBM E-score
67 | GTACAAGA | 0.0547
68 | AGCTGTTA | 0.0939
69 | AGAACCCT | -0.269
70 | CAAATAGA | 0.169
71 | CTCCTAGA | -0.09
72 | AAGCTGTA | 0.0993
73 | ATTGAGCA | -0.0751
74 | TCCCCTAA | -0.144
75 | TCGCAAGA | -0.124
76 | CTTGACGC | 0.214
77 | GTCGGAGA | -0.151
78 | ACTGCTGC | -0.0308
79 | ATCCAGAG | -0.0234
80 | GTGCAAAA | 0.09
81 | AGTCAGCG | -0.134
82 | GAACCACC | 0.0133
83 | CCATAGGA | -0.242
84 | TCCAGGAA | -0.072
85 | AAATTCAG | 0.117
86 | CACCCAAA | -0.00202
